Test results from publication PMC4336329 (PLoS ONE, 2015).
In all, about 310,000 compounds went through this assay and about 2,200 (0.71%) showed an effect of 50% or more. Effects have a minus sign here. This is one part of the list.

Target: human ether-à-go-go-related gene (hERG) potassium channel (human, UniProt Q12809)
Experiment: primary screen, population patch clamp on CHO cells stably expressing hERG

Chain of human ether-à-go-go-related gene (hERG) potassium channel (Q12809 whole entry, looked up): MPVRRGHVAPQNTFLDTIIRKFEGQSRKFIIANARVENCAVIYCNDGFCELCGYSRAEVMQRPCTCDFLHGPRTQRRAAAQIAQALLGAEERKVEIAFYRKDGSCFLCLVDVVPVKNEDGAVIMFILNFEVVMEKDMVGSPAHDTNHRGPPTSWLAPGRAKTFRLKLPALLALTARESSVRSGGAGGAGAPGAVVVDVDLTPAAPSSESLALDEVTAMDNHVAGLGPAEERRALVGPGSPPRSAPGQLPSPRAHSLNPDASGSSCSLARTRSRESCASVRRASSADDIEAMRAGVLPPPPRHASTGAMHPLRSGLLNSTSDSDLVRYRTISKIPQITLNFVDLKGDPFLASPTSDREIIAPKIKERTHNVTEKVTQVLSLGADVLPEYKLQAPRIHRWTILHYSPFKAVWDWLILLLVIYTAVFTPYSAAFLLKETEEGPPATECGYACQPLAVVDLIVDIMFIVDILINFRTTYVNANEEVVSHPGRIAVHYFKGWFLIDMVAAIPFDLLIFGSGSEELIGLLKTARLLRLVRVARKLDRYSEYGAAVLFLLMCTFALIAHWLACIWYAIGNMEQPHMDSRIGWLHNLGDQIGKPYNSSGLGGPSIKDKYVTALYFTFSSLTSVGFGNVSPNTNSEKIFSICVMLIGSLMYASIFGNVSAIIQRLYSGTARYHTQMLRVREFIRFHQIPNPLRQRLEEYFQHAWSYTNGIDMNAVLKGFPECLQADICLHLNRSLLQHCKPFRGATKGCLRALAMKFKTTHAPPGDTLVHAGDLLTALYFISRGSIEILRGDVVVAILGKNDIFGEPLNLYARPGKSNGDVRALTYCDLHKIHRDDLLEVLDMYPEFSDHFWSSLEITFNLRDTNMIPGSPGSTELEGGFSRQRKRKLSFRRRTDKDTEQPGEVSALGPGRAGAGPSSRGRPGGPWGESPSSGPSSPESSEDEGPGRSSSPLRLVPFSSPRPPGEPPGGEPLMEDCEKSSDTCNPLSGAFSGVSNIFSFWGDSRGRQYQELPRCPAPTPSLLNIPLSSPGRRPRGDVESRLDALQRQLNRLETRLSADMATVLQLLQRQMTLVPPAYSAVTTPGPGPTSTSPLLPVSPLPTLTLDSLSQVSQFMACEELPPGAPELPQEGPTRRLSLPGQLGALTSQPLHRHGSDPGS

SMILES	hERG current change (%, negative = inhibition) at 1uM [%]
COc1ccccc1NC(=O)COC(=O)c1cc(C)nc2ccccc12	8.92
CCc1ccc(NS(=O)(=O)c2ccc3c(c2)CCN3C(=O)CCC(=O)O)cc1	8.06
CCCn1nnnc1NCc1cccc(OC)c1OCC	4.19
CS(=O)(=O)O.S=C=Nc1cccc(C2(N3CCCCC3)CCCCC2)c1	2.09
COc1ccc(CNC(=O)c2noc(C(C)C)c2[N+](=O)[O-])cc1	0.486
C/C(=N\NC(=O)CN1CCN(S(=O)(=O)c2ccc(C)cc2)CC1)c1ccncc1	-77.6
O=C(Cc1ccccc1)NNS(=O)(=O)c1ccccc1[N+](=O)[O-]	9.17
OCc1n[nH]c(CO)n1	-12.4
CCOc1ccc(S(=O)(=O)N2CCCCC2)cc1NC(=O)c1c(CC)noc1C	7.63
Cc1ccc(NC2=CC(=O)OC(C)C2)cc1 (stereo not shown)	12.2
O=C(CCCN1C(=O)CCC1=O)Nc1cccc(C(F)(F)F)c1	3.51
COc1cc(Cc2cc(N)nc(N)n2)cc(OC)c1OC	15.5
O=C(O)c1cnn2c1NC(c1ccc(F)cc1)CC2C(F)(F)F (stereo not shown)	0.527
CCOP(=O)(OCC)C(NC(=O)c1ccccc1)=C(Cl)Cl	5.7
O=C(COC(=O)CNC(=O)c1ccc(Cl)cc1)Nc1ncc(C(F)(F)F)cc1Cl	7.36
COc1cccc(OC)c1C1=NC(C)(C)CO1	13.6
COC(=O)c1cc(=O)n(CCc2ccc(OC)cc2)c(=Nc2ccc(F)c(Cl)c2)s1	1.69
O=C(Nc1ccc2ncccc2c1)Nc1ccc2ncccc2c1	13.5
O=C1/C(=C\c2cccnc2)CN(Cc2ccccc2)C/C1=C\c1cccnc1	1.76
COc1ccc(CCC(C)NCC(C)c2ccccc2)cc1 (stereo not shown)	-9.93
Br.Cc1nnc2n1N=C(c1ccccc1)CS2	11.3
Cn1c(=O)n(Cc2ccccc2Br)c2ccccc21	9.48
O=C(Nc1nc2ccccc2[nH]1)c1cc2ccccc2o1	-1.5

SMILES	hERG current change (%, negative = inhibition) at 1uM [%]
O=[N+]([O-])c1ccc(CN2CCSCC2)cc1	7.91
C=CCN(c1ccccc1)S(=O)(=O)c1cccc(C(=O)Nc2ccncc2)c1	-12
Cc1ccccc1C(=O)NCCCn1ccnc1	14.3
CC(C)(C)c1ccc(/C=N/Nc2cccc(C(=O)O)c2)cc1	19.3
COc1ccc(S(=O)(=O)N(Cc2cccnc2)Cc2cc3ccccc3[nH]c2=O)cc1	4.09
O=C(NC1CC1)C1=C[C@@H](c2ccc(Br)cc2)C[C@@H](OCc2ccc(CO)cc2)O1	-1.49
Cc1cc(C)n(-c2cc(N3CCN(S(=O)(=O)c4ccc5ccccc5c4)CC3)ccc2[N+](=O)[O-])n1	-2.43
CC1CC(=O)Nc2ccccc2N1C(=O)Nc1ccc(F)cc1 (stereo not shown)	9.77
CN(C)C(=O)N1CCNCC1.Cl	11.8
Cc1ccc(S(=O)(=O)N2CCN(C(=O)COc3ccc(-c4nnco4)cc3)CC2)cc1	12
c1ccc2sc(NC3=NCN(CC4CCCO4)CN3)nc2c1 (stereo not shown)	7.45
C#CCOCCOCCOCCNc1nc(N2CCN(C(=O)[C@H]([C@@H](C)CC)n3cc([C@@H](N)CO)nn3)CC2)nc(N2CCN(C(=O)[C@H]([C@@H](C)CC)n3cc([C@@H](N)CC(C)C)nn3)CC2)n1.Cl	11.5
CC(C)[C@H](NC(=O)c1ccc(Cl)c([N+](=O)[O-])c1)C(=O)O	8.48
C(#CC1CCCCC1)c1ccc2c(c1)COc1c3ccccc3nn1-2	9.17
CC(NC(=O)Nc1ccc(Cl)cc1)c1ccc2c(c1)OCO2 (stereo not shown)	14.1
COc1cccc(/C=C2\SC(=S)N(CC3CCCO3)C2=O)c1 (stereo not shown)	10.9
CCc1ccc(NC(=O)CSc2nnc(-c3cccs3)n2CC)cc1	-25.7
CCC(C)NC(=O)C1CCN(c2nc(OC)nc(OC)n2)CC1 (stereo not shown)	0.0913
O=C(CSc1ccc(-c2cccs2)nn1)Nc1ccccc1	-17.8
Nn1cnn(Cc2ccccc2)c1=S	11.6
N#Cc1nc(-c2cccs2)oc1NCCc1ccccc1	14.3
CCc1nnc(NS(=O)(=O)c2ccc(NC(=O)/C=C/c3ccc(F)cc3)cc2)s1	5.35
O=[N+]([O-])c1ccc(C2=Nn3cnnc3SC2)cc1	-7.44
